Experimental findings from the supplement of paper PMC8728848 are described below.

Common to all, as to assay: glycan array binding signal (z-score within array); higher = stronger binding
Details in all cases: glycan notation: IUPAC condensed, linker removed

Experiment [1] addresses Gal(b1-4)GalNAc(b1-3)[Fuc(a1-2)]Gal(b1-4)GlcNAc. In a few lines:
(§1)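 Negative Z-scores can be read as non-binding. The Z-score is calculated within each array and then averaged across arrays of one protein sequence at different concentrations or buffers and across linkers. Arrays, 3228 in all, were curated from the Consortium for Functional Glycomics database and kept only where the protein sequence was available.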

A further experiment has as its target Gal(b1-4)Glc. In a few lines:
as §1

The target of the next experiment is Gal(b1-4)Glc6S. An outline of the steps: as §1
The target in a further experiment is Gal(b1-4)GlcNAc. An outline of the steps:
as §1

For experiment [2], the target named is Gal(b1-4)GlcNAc(a1-6)Gal(b1-4)GlcNAc. In a few lines:
as §1

Another experiment has as its target Gal(b1-4)GlcNAc(b1-2)Man. In a few lines: as §1
The target in experiment [3] is Gal(b1-4)GlcNAc(b1-2)Man(a1-3)Man(b1-4)GlcNAc(b1-4)GlcNAc. In a few lines:
as §1

The target of experiment [4] is Gal(b1-4)GlcNAc(b1-2)Man(a1-3)[Gal(b1-4)GlcNAc(b1-2)Man(a1-6)]Man(b1-4)GlcNAc(b1-4)GlcNAc. In a few lines: as §1
Experiment [5] deals with Gal(b1-4)GlcNAc(b1-2)Man(a1-3)[Gal(b1-4)GlcNAc(b1-2)Man(a1-6)]Man(b1-4)GlcNAc(b1-4)[Fuc(a1-6)]GlcNAc. An outline of the steps: as §1
In experiment [6] the target is Gal(b1-4)GlcNAc(b1-2)Man(a1-3)[Gal(b1-4)GlcNAc(b1-2)Man(a1-6)][Gal(b1-4)GlcNAc(b1-4)]Man(b1-4)GlcNAc(b1-4)[Fuc(a1-6)]GlcNAc. An outline of the steps:
as §1

The target in experiment [7] is Gal(b1-4)GlcNAc(b1-2)Man(a1-3)[Gal(b1-4)GlcNAc(b1-2)Man(a1-6)][GlcNAc(b1-4)]Man(b1-4)GlcNAc(b1-4)[Fuc(a1-6)]GlcNAc. In a few lines:
as §1

Experiment [8] concerns the target Gal(b1-4)GlcNAc(b1-2)Man(a1-3)[GlcNAc(b1-2)Man(a1-6)]Man(b1-4)GlcNAc(b1-4)GlcNAc. In a few lines: as §1
Experiment [9] has as its target Gal(b1-4)GlcNAc(b1-2)Man(a1-3)[GlcNAc(b1-4)][Gal(b1-4)GlcNAc(b1-2)Man(a1-6)]Man(b1-4)GlcNAc(b1-4)GlcNAc. An outline of the steps:
as §1

The target in experiment [10] is Gal(b1-4)GlcNAc(b1-2)Man(a1-3)[Man(a1-6)]Man(b1-4)GlcNAc(b1-4)GlcNAc. In a few lines:
as §1

The target of experiment [11] is Gal(b1-4)GlcNAc(b1-2)Man(a1-6)Man(b1-4)GlcNAc(b1-4)GlcNAc. In a few lines: as §1
The target of experiment [12] is Gal(b1-4)GlcNAc(b1-2)Man(a1-6)[GlcNAc(b1-2)Man(a1-3)]Man(b1-4)GlcNAc(b1-4)GlcNAc. An outline of the steps:
as §1

The target in experiment [13] is Gal(b1-4)GlcNAc(b1-2)Man(a1-6)[Man(a1-3)]Man(b1-4)GlcNAc(b1-4)GlcNAc. In a few lines:
as §1

Experiment [14] deals with Gal(b1-4)GlcNAc(b1-2)[Gal(b1-4)GlcNAc(b1-4)]Man(a1-3)[Gal(b1-4)GlcNAc(b1-2)Man(a1-6)]Man(b1-4)GlcNAc(b1-4)GlcNAc. An outline of the steps:
as §1

In experiment [15] the target is Gal(b1-4)GlcNAc(b1-2)[Gal(b1-4)GlcNAc(b1-4)]Man(a1-3)[Gal(b1-4)GlcNAc(b1-2)[Gal(b1-4)GlcNAc(b1-6)]Man(a1-6)]Man(b1-4)GlcNAc(b1-4)GlcNAc. In a few lines: as §1
Experiment [16] concerns the target Gal(b1-4)GlcNAc(b1-2)[Gal(b1-4)GlcNAc(b1-4)]Man(a1-3)[GlcNAc(b1-4)][Gal(b1-4)GlcNAc(b1-2)Man(a1-6)]Man(b1-4)GlcNAc(b1-4)GlcNAc. In a few lines:
as §1

For experiment [17], the target named is Gal(b1-4)GlcNAc(b1-2)[Gal(b1-4)GlcNAc(b1-4)]Man(a1-3)[GlcNAc(b1-4)][Gal(b1-4)GlcNAc(b1-2)[Gal(b1-4)GlcNAc(b1-6)]Man(a1-6)]Man(b1-4)GlcNAc(b1-4)GlcNAc. An outline of the steps: as §1
In experiment [18] the target is Gal(b1-4)GlcNAc(b1-2)[Gal(b1-4)GlcNAc(b1-6)]Man(a1-6)[Gal(b1-4)GlcNAc(b1-2)Man(a1-3)]Man(b1-4)GlcNAc(b1-4)GlcNAc. In a few lines:
as §1

Some of the results follow.

For CTAEGIKKFEGDGYELFKDNFPAGEKFDNDDTNDQFYTVIF [MUB40 (Lactobacillus reuteri)], the “glycan array binding signal (z-score)” value is -0.408 in experiment [1]; -0.052 with Gal(b1-4)Glc; 0.18 with Gal(b1-4)Glc6S; -0.134 with Gal(b1-4)GlcNAc; -0.17 in experiment [2]; -0.368 in the experiment with Gal(b1-4)GlcNAc(b1-2)Man. Also, the “glycan array binding signal (z-score)” value in experiment [3] was 0.279; in experiment [4] it was -0.183; in [5] it was -0.425; in experiment [6], 0.207; in [7], 0.74; in experiment [8] it was -0.422. Further, the “glycan array binding signal (z-score)” value in [9] is -0.422; in [10], -0.331; in [11] it was -0.193; in [12], -0.102; in [13], -0.441; in [14], -0.293. The “glycan array binding signal (z-score)” value in [15] is -0.137; in [16], -0.358; in [17], -0.656; in experiment [18] it was 0.618.
